# Test results from ChEMBL document CHEMBL5308541, “MAIP: An Open-Source Tool to Enrich High-Throughput Screening Output and Identify Novel, Druglike Molecules with Antimalarial Activity” (ACS Med Chem Lett, 2023).
# Among all 150,000 compounds or so, about 540 (0.36%) showed an effect of 50% or more. The list shows a part of the results.
# System: Plasmodium falciparum
# Assay: Primary screen in NF54 nanoGlo assay, in single point, at 2uM, 72h; a lower Z score goes with more inhibition
# Assay type: functional, Erythrocyte
# Conditions: timepoint 72 hour
SMILES,% Inhibition [%],Z score
Cn1c(CN2CCCC2)nnc1C1CCN(Cc2ccc3[nH]ccc3c2)CC1,1,-0.19
O=C(NC1CCN(CC(F)(F)F)CC1)c1cc(-c2ccncc2)on1,-21,4.23
CCCN(Cc1ccc2cn[nH]c2c1)C1CCN(c2cc(C)nc(C)n2)CC1,1,-0.09
O=C(NC1COCC1Cc1ccnc2ccccc12)C1(c2ccc(Cl)cc2)CCC1 (configuration not stated),-13,2.21
O=c1[nH]c(NC[C@H](O)c2ccc(OC(F)F)cc2)nc2ccccc12,-1,0.29
CCc1nc(C#N)c(N2CCN(c3cc(Nc4ccc(C)cc4)ncn3)CC2)o1,-17,2.59
FC(F)(F)c1nc(NCCN2CCN(c3ncccn3)CC2)c2nc[nH]c2n1,-9,1.57
O=C(OCc1ccccc1)N1CCO[C@H](c2nc(-c3c[nH]c4ncccc34)cs2)C1,-2,0.46
CN1CCN(c2ccc(CNC3CCC(N)CC3)cn2)CC1 (configuration not stated),-5,1.08
CCN(C(=O)c1ccc2c(c1)NC(=O)C2)c1ccc2[nH]ccc2c1,-1,0.19
Nc1ccnc2ccc(C(F)(F)F)cc12,2,-0.4
Cc1noc(C)c1C(C)(C)NC(=O)Cc1ccc2c(c1)CCCC2,2,-0.3
Cn1cc(Nc2cccc(NC(=O)c3ccc4[nH]cnc4c3)c2)cn1,-4,0.92
CN(C(=O)Nc1cccc(Cl)c1F)C1COCC1O (configuration not stated),0,0.09
Cc1cc(NCCCN2CCC[C@H](O)C2)c2cc(F)ccc2n1,24,-4.1
CCc1cccc2c(C(=O)[C@H](Nc3ccc(NC(=O)CN4CCOCC4)cc3)c3ccccc3)c[nH]c12,-4,0.6
CN1CCCCC1CN1CCN(c2cc(N3CCCC(CO)C3)ncn2)CC1 (configuration not stated),-8,1.49
Cc1noc(-c2ccccc2)c1NC(=O)c1cccc(Nc2cnn(C)c2)c1,0,0.08
CCN(Cc1cc(F)ccc1-n1cccn1)CC1CCN(C2CCN(C)CC2)CC1,16,-2.76
CC(C)[C@H](NC1CCN(CCC(F)(F)F)CC1)c1nc(-c2cccnc2)no1,-8,1.39
NC(=O)Cn1cc(-c2cccc3c2CCCC3)nn1,1,-0.12

SMILES,% Inhibition [%],Z score
OC[C@H]1CCCCN1CCNCc1coc(-c2ccccc2)n1,-4,0.7
CNc1nc(N[C@H]2CCCN(Cc3ccc(CC(C)C)cc3)C2)ncc1F,-8,1.62
Cc1ccccc1-c1cccc(CNCCCN2CCC[C@H](O)C2)c1,37,-7.91
Nc1nc(NCc2ccccc2)nc(N2C3CCNCC2CC3)n1 (configuration not stated),1,-0.31
CCc1c(C(=O)NCC2([C@H](O)c3ccccc3)CC2)cnn1C(CC)CC,-11,2.15
COC1CCN(C2CCCC2NC(=O)Nc2cc(-c3cccnc3)ccc2C)C1 (configuration not stated),2,-0.27
CCCNc1cc(N2CCC[C@H](CCC(=O)NCCN3CCCCCC3)C2)ncn1,11,-2.11
FC(F)(F)c1ccc(O[C@H]2CCN(c3ccnc(C(F)(F)F)c3)C2)nc1,-10,1.57
O=C(C1CCCCC1)N1CC[C@H](Nc2nc(C(F)(F)F)nc3nc[nH]c23)C1,-7,1.2
COCCN1CC[C@H](CNC2CCN(c3ncc4ccc(F)cc4n3)CC2)C1,58,-10.01
CC(c1ccccc1)N1CCC(NC2CC3CCCC(C2)N3C)C1 (configuration not stated),15,-2.69
FC(F)(F)c1cc(-c2noc(-c3ccc(Nc4cccnc4)cc3)n2)ccn1,-9,1.57
CCN1CCC(N(CC2CCN(Cc3ccccc3C)CC2)C[C@H]2CCCO2)CC1,1,-0.12
C#CCOc1ccc(CNC2CCN(CC(F)F)CC2)cc1,-8,1.71
CC1(N2CCOCC2)CCC(Nc2cccc(-c3cnco3)c2)CC1 (configuration not stated),-5,0.71
CCCCN1CCC(CNC(=O)c2cccc([C@H]3CCNC3)c2)CC1,-9,1.55
CCS(=O)(=O)c1ccc(O)c(Nc2ncnc3cc(OC)c(OC)cc23)c1,6,-1.11
CC1CN(c2ccc(Nc3ncncc3-c3ccccc3)cn2)CC(C)O1 (configuration not stated),-3,0.44
CCN(Cc1noc(C2CCC2)n1)C(=O)NCc1cc2ccccc2o1,-13,2.59
COc1ccc(C2N3CCc4ccccc4C3CN2S(=O)(=O)c2ccc(OC)c3ncccc23)cc1 (configuration not stated),2,-0.3
OCCN1CCN(C2CCN(Cc3cnn4cccnc34)CC2)CC1,-6,1.08

SMILES,% Inhibition [%],Z score
FC1(F)CC[C@H](Nc2nccc3[nH]cnc23)C1,8,-1.52
NCCc1nc(NCCc2nc(-c3ccccn3)no2)c2ccccc2n1,-5,0.94
COc1ccc(CN(Cc2cc(=O)n3nc(-c4ccccc4)sc3n2)c2ccc(Cl)cc2)cc1,-10,1.75
OC[C@H]1C=C[C@@H](Nc2ncc(Cl)c(N[C@@H]3C=C[C@H](CO)C3)n2)C1,6,-1.35
O=C1CN2CCN(S(=O)(=O)c3cccc(Cl)c3)C[C@@H]2COc2ccc(-c3ccc(F)cc3F)cc2N1,-5,0.8
C[C@@H](c1cc2ccccc2o1)N(C)C(=O)c1csc(COc2ccc(F)cc2)n1,-14,2.08
COc1ccc([C@@H](CNc2ncccc2-c2nc(C)no2)c2c[nH]c3ccccc23)cc1,-6,1.09
C[C@H]1CN(c2cccc3cnccc23)CCN1c1ncnc2[nH]cnc12,-12,2.62
CCN(C)C1(CNc2ncnc3cc[nH]c23)CCCCC1,-1,0.15
CC1(C)C[C@@H](O)CCN(C(=O)c2ccc(NC3=NCCC3)cc2)C1,-6,1.16
CC(C)N(Cc1ccccc1)C(=O)C(=O)c1cn(CC(=O)N2CCOCC2)c2ccccc12,-8,1.15
CCC1(NC(=O)Nc2ccncc2Br)CCOCC1,-2,0.43
CCN1CCN(C(=O)CCC2CCN(Cc3cccc4cnccc34)CC2)CC1,4,-0.61
CC(C)CC(=O)Nc1ccc(NCC(=O)Nc2cccc3c2N=S=N3)cc1,-7,1.01
O=C(NCCNc1nccc(N2CCC[C@H](O)C2)n1)c1ccncc1,-1,0.17
Cc1nonc1CN(C)Cc1nc2cc(Cl)ccc2[nH]1,-13,2.29
COc1cc(OC)c(NC(=O)c2ccc3[nH]ccc3c2)cc1F,4,-0.78
CN1C(C)(C)CC(NC(=O)c2ccc(-c3cc(-c4cccc(C(F)(F)F)c4)n[nH]3)cc2)CC1(C)C,40,-7.08
Cc1ccc(-c2cc(C(=O)N3CCC(CCn4ccnc4C)CC3)[nH]n2)o1,1,-0.13
CC(C)c1nnc2ccc(NC(=O)N3CCC(F)(F)C3)cn12,-1,0.17
COc1ccc(-c2cc3ncnc(NCC[C@@](O)(c4nccn4C)C(F)(F)F)c3s2)cc1,-2,0.3

SMILES,% Inhibition [%],Z score
CN(CCN1CCOCC1)C(=O)[C@@H]1C=CCN1,1,-0.21
CCN(C)CCN(C)C(=O)c1ccc(-c2ccc3cnc(N)cc3c2)cc1,19,-3.79
CS(=O)(=O)c1cnc(NCCN2CCOCC2)nc1[C@H]1CCCNC1,2,-0.33
CN(C)c1nc(NC2CCN(Cc3cccnc3)CC2)ncc1F,-9,1.94
CCN(C(=O)c1cc(C2CC2)nc2ccc(OC)cc12)[C@@H](C)CS(=O)(=O)CC,1,-0.13
Cn1cc(-c2csc(CNc3ccccc3CN3CCC(CO)CC3)n2)cn1,-10,2.03
Cc1[nH]c2ccccc2c1CC(=O)Nc1c(F)cccc1OCc1ccccc1,0,0.01
Cc1ccc(-c2ccnc(N3CCO[C@H](C(=O)N(C)CC(C)C)C3)n2)c(C)n1,-12,2.05
COc1cccc([C@H](C)N2CCN(C(=O)c3ccc(Cl)c4cccnc34)CC2)c1,12,-2.5
CC1CCCC(N2CCC(NCCCn3ccnc3)CC2)C1 (configuration not stated),15,-2.57
CN1CCC(NC2CC3CCCC(C2)N3Cc2ccccc2)CC1 (configuration not stated),-1,0.27
CC(C)[C@H]1NC(=O)[C@@H](C)NC(=O)CCCN(C(=O)CC[C@@H]2CCCN3CCCC[C@H]23)CCCNC1=O,-1,0.19
CCN(C)CC1CCN(c2ccc(C#N)c(N3CCC(CN(C)CC)C3)n2)C1 (configuration not stated),14,-3.01
O=C(NCCc1c(C(F)(F)F)[nH]c2ccccc12)c1cc(-c2cccc(O)c2)on1,1,-0.16
CCc1nn(C)c(NC(=O)CCC(=O)N(C)C2CCCCC2)c1C,-11,2.17
Cc1cc(NC(=O)Cn2cc(-c3ccc4[nH]ccc4c3)cn2)n(-c2ccccn2)n1,-17,2.96
CNc1nc(NCC2CCN(Cc3nc(C)c(C)o3)CC2)ncc1Br,-6,1.05
COc1ccc2nc(C(=O)Nc3nccn3Cc3ccc(Br)cc3)ccc2c1,-5,0.81
